Laboratory results: a collection of fitness landscapes (doi:10.1016/j.celrep.2020.107928)
The full ranking holds about 81,000 sequences; the median of “one-hybrid fitness for binding parS DNA” is about -0.17, and the highest 2% start at about 0.51. The list shows a part of the results.

B1: Caulobacter ParB omega fusion; a variant is named by its letters at X, in order, B8GW30 (parent)
chain: MESVVVGEPGMSEGRRGLGRGLSALLGEVDAAPAQAPGEQLGGSREAPIEILQRNPDQPRRTFREEDLEDLSNSIREKGVLQPILVRPSPDTAGEYQIVAGERAWRAAQRAGLKTVPIMVRELDDLAVLEIGIIENVQRADLNVLEEALSYKVLMEKFERTQENIAQTIGKSXSHVANXMRLLXLPDEVQSYLVSGELTAXHARAIAAAADPVALAKQIIEGGLSVRETEALARKAPNLSAGKSKGGRPPRVKDTDTQALESDLSSVLGLDVSIDHRGSTGTLTITYATLEQLDDLCNRLTRGI

Variants of: B1
Assay: one-hybrid fitness for binding parS DNA (scaled: cognate 1, non-cognate 0); higher = stronger binding
Conditions: with parS DNA site
Summary of the method: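 Bacterial one-hybrid selection in E. coli USO rpoZ- hisB- pyrF- with a HIS3 reporter carrying the site 19 bp from the promoter, screening Caulobacter ParB libraries with four specificity codons randomised (NNS). Cells grew 48 hours at 37°C on M9-minus-histidine plus 0.1 mM IPTG and 5 mM 3-AT. Plasmids before and after selection were Illumina-sequenced, three replicate libraries pooled, and variants under 10 reads dropped. Fitness is the log change in variant-to-wild-type read ratio, rescaled to cognate 1, non-cognate 0.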

one-hybrid fitness for binding parS DNA, 0.365:
RQKM

one-hybrid fitness for binding parS DNA, 0.231:
VIEN

one-hybrid fitness for binding parS DNA, 0.882:
RCGT

one-hybrid fitness for binding parS DNA, 0.493:
RGGT

one-hybrid fitness for binding parS DNA, 0.216:
RMYW

one-hybrid fitness for binding parS DNA, 1.03:
RALS

one-hybrid fitness for binding parS DNA, 0.986:
RIMC

one-hybrid fitness for binding parS DNA, 1:
RCTC
RCHC

one-hybrid fitness for binding parS DNA, 0.385:
RNNN

one-hybrid fitness for binding parS DNA, 0.565:
RRNT

one-hybrid fitness for binding parS DNA, ≤ 0.2:
SNTR
AHKN
QINR
KWEG
VCPP
KVPT
GCPN
GEGS
EMTT
PAEM
GRCM
SGVD
RRWM
PKNA
GLPM
IISY
PPPH
EIGT
WVES
SLPF
QMIY
KLAC
AIHY
VSDS
CRSN
HWRS
CDIR
EPDC
WAKD
GDFS
IRAT
GNQN
LMDV
WPAN
CWYR
VWQD
NTRA
KSAI
QCLT
YRKT
EMAG
GPCF
SWIR
GNKI
ESDG
MVLY
RDCT
CALI
PNTM
AREP
LSWR
SLRS
QQSL
WTNW
LCAV
YHYF
TLMP
LIPC
PWNM
SKWG
SYTA
GDQS
IAKY
WTIG
MAVH
ETAR
ATSS
AHLT
RLPE
DPGG
STQT
EAKT
VAGI
FYPL
WRAI
GRRF
QLGE
ANIS
NLVY
EFKS
KQRM
SLLA
SYWR
KLII
VVGT
PDDC
PYWF
QVFP
STDS
VLIR
MPER
ARPP
VPRS
PTET
QTVK
IPHC
ARYY
QWNT
PCPT
KQNY
TARC
QWTQ
QVTM
RDHI
FWPR
ENSG
WTKG
SLWS
LMHG
SFGG
NAYS
VNAS
IEQS
KMQG
SEKG
SHID
KAEM
KEVR
MSIG
KQSH
NCHC
TATF
TMDA
NSME
LMKV
MHQL
IIGI
ASGN
FLDK
GRNS
RRSK
GSYP
EPLI
WCRK
GGET
MISY
QQNC
SCIS
QKKG
HQWG
VARD
GYTR
KKSY
MGKS
PGDL
DSQG
NTQS
CLIA
SGKS
MGMR
HPFM
SNAN
KFMS
HSYI
LKHL
GAAP
ITIT
WTPE
YCTS
SQSL
YKTG
YRTL
HHDT
FRMG
PFPC
AVLF
AMGP
YDNT
LHPV
KNQM
WYAG
QMTA
PRDK
QYQK
TMRD
RMND
DYRL
WRIF
PTLE
DQSS
VIMT
RVAD
NLPL

one-hybrid fitness for binding parS DNA, 0.504:
RGFG
